Assay results published in paper PMC4336329 (PLoS ONE, 2015).
In all, about 310,000 compounds went through this assay and about 2,200 (0.71%) showed an effect of 50% or more. Effects have a minus sign here. The list shows a part of the results.

Each compound was assayed against human ether-à-go-go-related gene (hERG) potassium channel (human, UniProt Q12809) (assay: primary screen, population patch clamp on CHO cells stably expressing hERG).
Chain of human ether-à-go-go-related gene (hERG) potassium channel (Q12809 whole entry, looked up): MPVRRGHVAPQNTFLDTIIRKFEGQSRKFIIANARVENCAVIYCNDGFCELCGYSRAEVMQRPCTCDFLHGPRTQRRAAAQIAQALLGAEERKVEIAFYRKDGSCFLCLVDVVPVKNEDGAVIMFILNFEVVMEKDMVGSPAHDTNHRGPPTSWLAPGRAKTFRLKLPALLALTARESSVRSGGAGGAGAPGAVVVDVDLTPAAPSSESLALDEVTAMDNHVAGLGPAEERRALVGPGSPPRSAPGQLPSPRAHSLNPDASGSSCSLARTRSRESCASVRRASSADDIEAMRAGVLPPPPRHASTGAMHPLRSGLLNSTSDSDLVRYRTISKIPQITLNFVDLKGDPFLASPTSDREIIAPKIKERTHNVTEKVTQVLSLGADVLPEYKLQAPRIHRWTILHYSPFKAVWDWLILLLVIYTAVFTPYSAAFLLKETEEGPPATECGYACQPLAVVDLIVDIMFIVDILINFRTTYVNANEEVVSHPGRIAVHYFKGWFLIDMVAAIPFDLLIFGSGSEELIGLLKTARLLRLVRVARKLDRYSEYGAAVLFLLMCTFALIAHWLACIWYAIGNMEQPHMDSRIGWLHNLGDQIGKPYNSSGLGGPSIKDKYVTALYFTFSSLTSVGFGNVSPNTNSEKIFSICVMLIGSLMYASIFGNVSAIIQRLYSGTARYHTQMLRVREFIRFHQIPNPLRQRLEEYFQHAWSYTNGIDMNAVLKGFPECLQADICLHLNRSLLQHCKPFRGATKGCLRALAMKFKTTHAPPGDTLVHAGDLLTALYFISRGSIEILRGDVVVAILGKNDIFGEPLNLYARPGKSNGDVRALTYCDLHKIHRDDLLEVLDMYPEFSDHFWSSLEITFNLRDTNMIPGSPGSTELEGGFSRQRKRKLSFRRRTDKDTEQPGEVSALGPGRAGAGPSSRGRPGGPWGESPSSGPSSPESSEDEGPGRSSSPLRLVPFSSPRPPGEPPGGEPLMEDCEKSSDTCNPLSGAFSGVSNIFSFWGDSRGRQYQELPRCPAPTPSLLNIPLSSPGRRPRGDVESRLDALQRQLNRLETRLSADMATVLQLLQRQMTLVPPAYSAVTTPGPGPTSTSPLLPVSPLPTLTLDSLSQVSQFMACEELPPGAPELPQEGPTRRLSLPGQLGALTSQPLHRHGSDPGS

| SMILES | hERG current change (%, negative = inhibition) at 1uM |
| --- | --- |
| COc1cccc(C(=O)N2CCCc3ccccc32)c1 | -3.04% |
| COc1ccc(-n2c(C)cc(/C=C3\SC(=S)N(Cc4ccco4)C3=O)c2C)cc1 | 8.36% |
| O=C(CCN1CCOCC1)N/N=C/c1cc([N+](=O)[O-])ccc1OC(F)F | 11.2% |
| CCOc1ccc(N2C(=O)Cc3ccccc3C2=O)cc1 | 18.6% |
| O=C(NCc1nc2ccccc2[nH]1)C1=C[C@H](C2CCCCC2)C[C@H](OCCCCO)O1 | 4.65% |
| O=C(NCc1ccncc1)c1ccc(Cl)c(S(=O)(=O)N2CCOCC2)c1 | 12.3% |
| C/C(N)=C(/C#N)C(=O)COC(=O)c1ccc(NC(N)=O)cc1 | 5.4% |
| Cc1cc(N/N=C/c2ccc(O)cc2O)nc(-c2ccccc2O)n1 | 8.71% |
| Cc1ccc(C(=O)N2CCC3(CC2)NCCc2[nH]cnc23)cc1 | -9.47% |
| COc1cccc(CNCc2ccc(C(=O)O)cc2)c1OC.Cl | 8.71% |
| COCCn1c(C)cc(C(=O)COC(=O)c2ccc(Cl)c(S(N)(=O)=O)c2)c1C | -0.148% |
| COc1ccc(CNC(=O)CC(C)c2ccccc2)cc1 (stereo not drawn) | 9.3% |
| CSc1ccccc1-c1nc(-c2ccncc2)no1 | 14.6% |
| CCN(CC)c1ccc2cc(C(N)=O)c(=N)oc2c1 | -6.33% |
| Br.C/C(Sc1nnc(Cc2ccccc2)o1)=C(/O)c1ccccc1 | 5.08% |
| Cn1ccnc1SCC(=O)Nc1cccc(C(F)(F)F)c1 | 7.12% |
| COCCN1Cc2cccc(C(=O)Nc3cccc(-c4nc5ccccc5[nH]4)c3)c2C1=O | 9.24% |
| O=C(CCCOc1ccccc1)Nc1cccc(S(=O)(=O)N2CCCCCC2)c1 | 13.2% |
| O=C(CC1CCCC1)N1CCN(S(=O)(=O)c2ccc(F)cc2)CC1 | 0.466% |
| CCOc1ccc2c(c1)c1nnc(SCC(=O)NC3CC3)nc1n2C | -1.34% |
| Cc1ccccc1NC(=O)Cc1nc(COC(=O)CCNS(=O)(=O)c2ccccc2)cs1 | 3.6% |
| O=C(Oc1ccc2c(c1)OCC2=O)c1ccccc1 | 13.6% |
| CCOC(=O)C(C)(C)Sc1nc2c(cnn2-c2ccc(Cl)cc2)c(=O)[nH]1 | 4.97% |

| SMILES | hERG current change (%, negative = inhibition) at 1uM |
| --- | --- |
| CCC(Sc1nc(-c2ccccc2)c(C#N)c(=O)[nH]1)C(=O)Nc1cc(C)on1 (stereo not drawn) | 4.78% |
| Cl.OC(CN1C2=NCCCN2c2ccccc21)c1ccc(Br)cc1 (stereo not drawn) | -86.2% |
| CC1Cc2nc(SCC(=O)N3CCOCC3)n(C)c(=O)c2S1 (stereo not drawn) | 10.8% |
| COc1cc(NC(=O)c2ccccc2)cc(OC)c1 | 7.74% |
| COc1ccccc1NC(=O)C1=C(C)Nc2nnnn2C1c1cccc(C)c1 (stereo not drawn) | 15.8% |
| O=C(Nc1ccnn1C1CCN(Cc2ccc(Cl)cc2)CC1)C1CCCC1 | -37.2% |
| Cn1c(C(=O)OCC(=O)NCc2cccs2)cc2sccc21 | 13% |
| S=C(Nc1ccccc1)Nc1nccs1 | 16% |
| CC(C)(C)OC(=O)N[C@@H](Cc1ccccc1)C(=O)NCC1CCC(C(=O)O)CC1 (stereo partly drawn) | 17.2% |
| CCCNC(=O)C(Cc1ccccc1)NC(=O)c1ccc(C(F)(F)F)cc1 (stereo not drawn) | 16.3% |
| COc1cc(/C=N/NC(=O)c2nonc2N)cc(OC)c1OC | 12.4% |
| O=C(CN1CCCCC1)Nc1ccc(Br)cc1C(=O)c1ccccc1Cl | 9.75% |
| CCn1c(SCC(=O)NNC(=O)c2ccco2)nnc1-c1ccco1 | 11.3% |
| CC(C)C(=O)N1CCc2cc(-c3csc(N)n3)ccc21 | 3.68% |
| CC(C)NC(=O)c1ccc(NC(=O)CC2SC(N3CCCC3)=NC2=O)cc1 (stereo not drawn) | 7.79% |
| Cc1ccc(CSC2=Nc3sccc3C3=NC(=O)CN23)cc1 | -4.69% |
| Cc1ccc(C(=O)N2CCN(c3ccc(N4CCOCC4)nn3)CC2)cc1 | 11.6% |
| C/C(=N\Nc1nc2c(s1)CCCC2)c1ccccc1.Cl | -2.17% |
| O=C(COc1ccc(Cl)cc1)NCCNC(=O)c1ccccn1 | 6.89% |
| OCC[C@H]1C[C@H](O)[C@@H](O)[C@]2(CCCc3ccccc3O2)O1 | 5.51% |
| Cl.OC(COc1ccc(Cl)cc1)CN1C2=NCCCN2c2ccccc21 (stereo not drawn) | -82% |
| Cc1n(Cc2ccccc2)c2ccccc2[n+]1Cc1ccccc1.[Cl-] | 12.1% |
| O=C(c1cccc(Cl)c1)N1CCC(=O)N(C(CO)Cc2ccccc2)CC1 (stereo not drawn) | 12.8% |

| SMILES | hERG current change (%, negative = inhibition) at 1uM |
| --- | --- |
| Cc1c(NC(=O)c2ccccc2NS(=O)(=O)c2ccc(F)cc2)c(=O)n(-c2ccccc2)n1C | 7.93% |
| Cc1cc2nnc(SCC(=O)N3C(C)CCCC3C)n2c(N)n1 (stereo not drawn) | 10.6% |
| COc1ccc(C(c2nnnn2Cc2ccccc2)N2CCN(C(=O)c3ccco3)CC2)cc1 (stereo not drawn) | -0.6% |
| CC(C)(C)c1ccc(OCCOCCn2cnc3ccccc3c2=O)cc1 | 3.03% |
| CCOC(=O)c1ccccc1NC(=O)CSc1nnnn1C | -6.87% |
| Cc1ccc(CN2CCN(Cc3cn[nH]c3C3CCCCC3)CC2CCO)cc1 (stereo not drawn) | -12.3% |
| Cc1[nH]n2c(=O)cc(Cc3ccccc3)nc2c1C#N | -6.39% |
| COc1ccc(Cl)cc1C(=O)NNC(=O)CSc1nnnn1C | 14% |
| OCCc1c[nH]c2ccc(C(F)(F)F)cc12 | 13.5% |
| CC(=O)N1CCc2cc(Br)cc(S(=O)(=O)NCc3ccccn3)c21 | 14.2% |
| CCN1CCN(Cc2ccc(NC(=O)c3ccc(C)c(NC(=O)N4CCNC4=O)c3)cc2C(F)(F)F)CC1 | 13.4% |
| C/C(=N\NC(=O)Cn1nc(C)cc1C)c1ccc([N+](=O)[O-])cc1 | -3.11% |
| CC(NC(=O)COc1ccc(S(=O)(=O)N2CCOCC2)cc1)c1ccccc1 (stereo not drawn) | 10.7% |
| O=S(=O)(c1cc(C(F)(F)F)ccc1Cl)N1CCN(c2ccccn2)CC1 | -4.36% |
| O=C(CCC1CCCN(C(=O)c2cccs2)C1)N1CCN(c2ccccn2)CC1 (stereo not drawn) | 7.51% |
| CCCCS/C(N)=N/N=C/c1ccccc1O | 13.9% |
| COC(=O)/C(=C(/F)SCC(C)=O)C(F)(F)F | 11% |
| CCCNC(=O)COc1ccc(-c2nn(C)c(=O)c3ccccc23)cc1 | 16.3% |
| COc1ccccc1N(CC1CO1)S(=O)(=O)c1ccccc1 (stereo not drawn) | 9.79% |
| Cc1ccc2nc(SCC(=O)NNC(=O)c3ccccc3)[nH]c2c1 | 1.65% |
| Cc1ccc(OCCCC(=O)N2CCN(S(=O)(=O)c3cccc(F)c3)CC2)cc1 | -1.38% |
| Fc1ccccc1CN1CCCN(C(=S)Nc2cccc(Cl)c2)C1 | 3.96% |
| CC1CCN(C(=O)C(=O)c2cn(CC(=O)N3CCCC3)c3ccccc23)CC1 | 10.6% |

| SMILES | hERG current change (%, negative = inhibition) at 1uM |
| --- | --- |
| CCOCCCNC(=O)C(NC(=O)c1ccc2c(c1)OCO2)c1ccccc1 (stereo not drawn) | 7.14% |
| CCOC(=O)Cc1nnc(NC(=O)CSc2ccc(C)cc2)s1 | 9.78% |
| CCCS(=O)(=O)N1CCCC(C(=O)NC(C)c2ccc3c(c2)OCCO3)C1 (stereo not drawn) | 12.3% |
| Cc1ccc(-c2nnn(CC(=O)N3CCC(C)CC3)n2)o1 | 17% |
| CCn1c2ccccc2c2cc(NC(=O)CSc3nnc(C4CC4)n3Cc3ccco3)ccc21 | 12.9% |
| COc1ccc(C(=O)N/N=C(\C)c2ccc(NC(=O)Cc3ccccc3)cc2)c(OC)c1 | 0.941% |
| CCCC(C)C(=O)Nc1ccc(C(N)=O)cc1 (stereo not drawn) | 9.98% |
| Cc1ccc(C(=O)N2CCN(c3ncnc4c(C)csc34)CC2)cc1 | 4.78% |
| COc1ccc(CN2C(=O)C(C)Oc3ccccc32)cc1 (stereo not drawn) | 19% |
| Cc1csc(NC(=O)c2ccc[nH]c2=O)n1 | 12.7% |
| NC(=O)c1oc2ccc(Cl)cc2c1NC(=O)CN1CCOCC1 | 5.95% |
| CCc1nccn1S(=O)(=O)c1ccc(OC)c(OC)c1 | 5.83% |
| O=[N+]([O-])C1=CC=C2C(=NC3(CCCCC3)N2O)C1=NCCO | 11.1% |
| COc1ccc(S(=O)(=O)N2CCN(CCC(=O)Nc3ccccc3F)CC2)cc1 | 7.26% |
| CCOc1ccc(CCNC(=O)COC(=O)/C=C/c2ccc(OCC#N)c(OC)c2)cc1OCC | 3.03% |
| O=C(CSc1nc(-c2ccccc2)c(-c2ccccc2)o1)Nc1nnc(-c2ccccc2)s1 | 19% |
| CC(C)Sc1cc(N2CCCC2)nc(-c2ccc(F)cc2)n1 | 10.3% |
| CNC(=O)c1c(NC(=O)C2=COCCO2)sc2c1CCCC2 | 10.9% |
| O=C(CCS(=O)(=O)c1cccc2nsnc12)NCc1ccccc1 | 5.93% |
| CC(=O)c1cccc(NC(=O)C(OC(=O)c2ccccc2NS(=O)(=O)c2cccs2)c2ccccc2)c1 (stereo not drawn) | 10.1% |
| CN1CCN(Cc2cc(COCc3ccccc3)c3cccnc3c2O)CC1 | -2.17% |
